According to the supplement of paper PMC3334620:
Whole data set: some 33,000 sequences, median “E-score (-0.5 to 0.5)” near -0.054, cut for the highest 2% near 0.39. Some of the results follow.

Each sequence was assayed against Ylr278c (UniProt Q05854) (assay: PBM E-score (8-mer binding enrichment) (E-score (-0.5 to 0.5)); higher = stronger / more preferred TF binding; most listed sequences are background and not binding sites). Conditions: protein concentration: 200 nM; construct: GST-DNA-binding domain.
Experimental: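 Universal 'all 10-mer' protein binding microarrays (Agilent AMADID 015681) probed with GST-tagged S. cerevisiae TFs (full-length or DBD) made by in vitro transcription/translation (PURExpress), about 100-200 nM. Bound TF was detected with fluorescent anti-GST. Each ungapped 8-mer (which stands for itself and its reverse complement) is scored by the PBM enrichment score (E-score), a modified Wilcoxon-Mann-Whitney statistic from -0.5 to +0.5, computed with the Universal PBM Analysis Suite. Scale: above 0.35 generally sequence-specific binding.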

Sequence | PBM E-score
ACAAAGTA | -0.127
AGTACATC | -0.137
ACGCCCAA | 0.00358
CGGCTGGA | 0.0769
AGTAATAC | 0.0413
AAAGTAAC | -0.00452
ACCTCTAG | -0.0549
AGTGAATA | -0.026
GGCGCAAC | 0.131
GTGCACTA | -0.0122
AAGGAAGG | -0.305
GCTGTCAA | -0.0973
TCAGAACA | -0.104
CACTAGTC | -0.113
CCCACGGG | 0.00912
ACCAGTGC | -0.264
AAGTGAGT | -0.165
CGGTAAGA | 0.115
CAAGCTCC | 0.168
AACTGTGC | -0.198
CATTGCGC | -0.0283
GGCACCAC | -0.00963
AATTCCCT | -0.103
TAAGTATA | -0.0135
ATAGACCA | -0.224

Sequence | PBM E-score
TCCCCAGA | -0.187
ATCACCGA | 0.204
GCGAGTAA | 0.0471
CCCTGTCA | -0.228
GGTTGTTA | -0.0132
CGAACCAG | -0.0147
AATGCAAT | -0.294
AGGGCAGA | -0.29
ACCCTGGA | -0.201
TCTACCAA | -0.209
ATCGAGCG | 0.109
GATCTACA | -0.0198
ACAGACCT | -0.106
ACGGTTGA | -0.187
AGTACCCG | -0.0434
AAAATTCA | 0.0225
CAAAGGTC | -0.224
AATCGGAT | 0.384
CCAGTCGA | -0.198
GGGAACGA | 0.025
AGTCTTCG | -0.22
CAGTGGGA | -0.0876
CATCAAAC | -0.0628
GGGTTGGA | 0.0191
CCCACAAA | -0.0205

Sequence | PBM E-score
CTTACGGA | 0.166
CGGAGAAG | 0.453
AAATAGTG | -0.154
AGTAAGAT | -0.0177
AACTCTCA | -0.214
CTCCTGGC | 0.0905
GACTGGAA | -0.161
CAGTGTTC | -0.0124
AAATCTGT | -0.0526
AAAATAGT | -0.187
ATCTCGTC | 0.0476
CCACTGCG | 0.0129
AGCCCAAG | -0.102
GAGCGGCC | 0.199
ACAAGCGA | -0.0176
CCTGATAC | -0.0837
GATCTCTA | -0.191
CCTTCGAC | -0.313
ACTTAACG | -0.202
CACGCTGC | -0.0562
CAAGAGGC | -0.161
AGGTCCAC | -0.0934
AAAGCGGT | 0.115
ATGTTCGC | -0.126
CACCTATG | -0.0846

Sequence | PBM E-score
ACCTGTCA | -0.126
GCGTGCTA | -0.224
CTGCTCTA | -0.197
ATAGATGG | -0.132
CATGTTCC | 0.0682
ACACCTAG | -0.13
CGGCACGA | 0.15
CAATTATA | -0.207
CGCCTTTA | -0.0616
CGGTAGTA | 0.098
GCTTGTGA | -0.308
CCAGTCTA | -0.232
GCTGCCTA | -0.0677
ACGGGTGC | -0.0805
AAATCTAC | -0.00444
AATATATG | 0.0736
AGTACTCC | 0.279
CGTCAGCA | -0.173
ACACGGGC | 0.161
AATTTTCT | 0.0945
AACAGTCT | -0.244
GATCTAAC | 0.00221
ATAAATCC | 0.228
AACAAAGT | 0.106
CCCGATTC | 0.146

Sequence | PBM E-score
ATTTGAAC | 0.0663
ACACTGAC | -0.0733
CCCGCCAC | 0.204
AAAGGGCG | -0.0539
TACGCCAA | -0.256
CTTCGTCA | -0.109
CGATACAC | -0.145
CGCCGAGA | 0.304
ACCGTTCG | 0.0396
CATCAGCA | -0.103
CGTGGCTA | -0.172
GATCCATC | 0.219
CATTGGGA | -0.198
AATCAATA | -0.0399
ACGAAGAC | -0.11
CGCTCTGA | -0.0769
CCCCGGTC | 0.368
CCCCTCCG | 0.342
AACCAATA | 0.00861
AAGTGTTG | -0.00324
AACGAACC | -0.0335
TACAGTCA | -0.241
TGCCCCCA | -0.239
CCAGTTGC | 0.00748
ATCATTAA | 0.0887

Sequence | PBM E-score
TGAGAGCA | -0.163
ACAGCGAA | -0.0695
ACAGTAGC | -0.0733
GATTGCAA | -0.095
AGATGCGC | -0.038
CGAACTAC | 0.171
ACTATAAC | -0.2
CTGAGAGC | -0.076
AGAGGTCC | 0.062
GCCGACGA | 0.248
ACGTAGAC | -0.244
CGATTCGC | 0.174
CCGCATAA | 0.297
CCAAGAAG | -0.132
AAATCTTA | -0.149
CTTTCGTC | 0.0249
ACTATTCG | -0.183
CTGACATA | -0.269
CGGCACTA | 0.291
ACCGAGCC | 0.0963
TACTAGGA | -0.0371
CCAATCGG | 0.217
AGGACACT | -0.115
AGAAAAGC | 0.0312
GACGAGAA | -0.105

Sequence | PBM E-score
GGCGCACA | 0.145
CGTAAAGC | -0.0859
TAATATCA | -0.113
CTCATCCA | -0.242
TTGGGAAA | -0.0337
ATCTTACA | -0.152
CCCGGTAG | 0.252
GTGCCACA | -0.314
ATGTTGCA | -0.281
AAAGGTCA | -0.183
GGGACGAC | -0.246
AGCGACGA | -0.122
TACCATAA | -0.115
TACAATAA | -0.132
AGAGACCG | -0.0104
GCCCAATA | -0.0613
ATTGTCAC | -0.0419
CCTAACCA | -0.146
GGGTAGCA | 0.0199
TCACCAGA | -0.141
CCCCGCTA | 0.258
GGTCGTTA | -0.0305
CATCCGAA | 0.303
CGGCCGTC | 0.198
CACTGCCC | -0.00147

Sequence | PBM E-score
AGGCGGCG | 0.193
AAAGCGGA | 0.324
CTTGGAGC | -0.184
GCACCTCC | 0.195
CATGGAGC | -0.157
GCCGTATA | 0.0779
CGTTAAAA | -0.0534
ACTATCCC | 0.0493
CGGGTAAG | -0.0724
ACCCCCGG | 0.334
GGAACACA | 0.0707
AAGAGCGC | -0.104
AACGGTAT | -0.0258
CGCGGATC | 0.272
CGCACAGC | 0.139
AATGGGTA | -0.112
GCCCCTCC | 0.0876
CCTGCATA | -0.109
CCCAGTAC | -0.237
AGGACTTA | -0.0757
AGTTCCCC | 0.23
AAGTAAGG | 0.0127
TACTCGAA | -0.184
AAAGCATC | 0.00213
ATGGGGAA | -0.0607

Sequence | PBM E-score
GTGATCAC | -0.0625
AATCGACC | 0.0866
AAGGGGGC | -0.244
AGTGAAGC | -0.0584
GGTAAACA | -0.0249
AGCTGAAC | -0.242
AAATCTGG | -0.0117
ATATAATG | -0.326
ACTGTGGG | -0.288
AGATTGCA | -0.125
CGTAGATA | 0.0276
CCGGGCAA | 0.352
GCGACACA | -0.0107
CACCAGTC | -0.26
ATCGTAGG | -0.276
GGGAGACA | 0.121
AATGTGCC | 0.0447
GCGTTACC | -0.0406
CCGCGAGC | 0.257
GTGTCGCA | 0.00208
CCCGCGTC | 0.254
GAGTAGCC | -0.125
TCCTTTAA | 0.0067
CGAGTGAC | -0.0386
CGGGTTAC | 0.174

Sequence | PBM E-score
ACTTTGCT | -0.141
TAAGGTAA | -0.0157
GCTGCAGC | 0.153
GCGGATTA | 0.261
AACGGATC | 0.23
CGATTAGC | -0.00532
ATCATTCA | -0.0937
CGCTAGAG | -0.0923
CTTCAGGC | -0.182
GAGGTGTA | -0.0186
CAAGGGTG | -0.154
GGAACGAA | 0.104
ACCCCTTA | -0.0547
GTGTAAGA | -0.283
CTACCGTC | 0.0115
CTAGAGAG | -0.282
GCTTCGAA | -0.0463
CTGCGCGA | 0.0109
ATATGTGG | -0.192
AGACAACT | -0.0993
GCCTTTAA | -0.0909
AATTCGGC | 0.157
CGTCATAC | 0.0109
GAGAGAGA | 0.007
CCGTCCCA | 0.0276

Sequence | PBM E-score
ATGATAAT | -0.0445
ATGCTCGA | -0.158
GGCCTGGA | -0.221
CACAAGTC | -0.191
ACGGATAC | 0.171
CTTTGACA | -0.187
CACCAGCC | 0.00847
CTTCGCAA | 0.0428
GGGCCATA | 0.122
TATAGCGA | -0.165
AAACATGA | -0.183
TCTCTTAA | -0.0612
ACCGGTAG | 0.165
GATGGGTA | -0.191
AAAGTGGC | -0.105
GCTCATAA | -0.0411
ATCAGGTC | -0.107
AATAATCG | -0.0135
AGTGTCCC | 0.0686
ATCTTCCA | -0.167
GCGACTAA | -0.0449
CGGTTGTC | 0.123
GCCTGTAA | -0.147
ATATCTAC | -0.0303
AGCTCGAC | -0.155

Sequence | PBM E-score
CCCAGGCC | -0.141
ATTACCTA | 0.0463
AGTTATAG | -0.215
ACGTTTGA | 0.0559
GCCAGAAC | -0.0889
CTTGGCAC | -0.22
CGGGTAGC | 0.0113
ATATAGCC | 0.0283
CTTGGCCA | -0.181
AGCTTTAC | -0.146
AGGAAGAA | -0.122
GAAAGAAC | 0.00616
ACGGGGAC | 0.152
CGTTGACA | -0.25
GCCCAGCA | -0.00582
AGTGAGAG | -0.0943
CAGAGACG | -0.0283
AGATAACC | 0.0637
ACTACCAA | -0.0721
ACCGCGGA | 0.407
CCCACAGA | -0.299
GTGGTGGA | -0.048
ATCAGATA | -0.0877
CGGATAGA | 0.25
AGACTAGG | -0.17

Sequence | PBM E-score
ATCTTAGG | -0.174
AACCTCGT | -0.0144
GGTACCTA | -0.24
CGATTAGA | 0.043
CGACTGAA | 0.0381
CTGTACTC | -0.173
ACCCCCCA | -0.245
CGCTCCGA | 0.432
ACAATGGA | 0.0428
ACGCTTCC | 0.141
GAAAGATA | -0.0447
GGTGGCCA | -0.164
AATCCGAC | 0.402
CGTACTAA | 0.0171
AGTGGGCG | -0.00249
CAAGCGTG | -0.176
TCTATACA | -0.202
GACTAAAC | -0.0103
CAAAACCG | 0.148
GATCGAGA | -0.0882
AGACAGAG | -0.172
ATGCAGCC | -0.131
CGGAATGA | 0.33
AAGCGAGG | -0.0923
CGACACAC | 0.0181

Sequence | PBM E-score
ATACGGTC | 0.0287
ATTGCGCA | 0.143
ATTGGTTC | 0.0775
GGACTCGA | 0.0117
TACCACGA | -0.214
CGAAGCTC | 0.0309
GGCTTCTA | -0.158
ACACCACC | -0.00359
GCCATTCC | 0.177
ATTCTGTG | 0.054
GACCGCTA | 0.0583
TAACATAA | -0.0831
CCTTCATC | -0.0422
GGTATAAA | 0.121
GAATGCTA | -0.114
CGGCAACC | 0.257
AGGGAAAT | -0.104
ACTACTTC | -0.0303
CAGTCTAC | -0.108
